Laboratory results: the supplement of paper PMC10369915
The other results are listed elsewhere or left out. Cut-off read from the data, not from the text of the source: active = 3.2 or more and inactive = the rest. Only a few entries rise above the background.

What follows are binders tested against SHP2 C-SH2 domain E139D (assay: enrichment score (SH2-bound / input frequency) (ratio); bacterial display of known human phosphotyrosine sites (pTyr-Var adds point mutants) read by sequencing; higher = stronger binding; tyrosines were phosphorylated by kinases first). Settings: peptide library: pTyr-Var.
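Note: displayed peptides selected on beads carrying the immobilized SH2 domain, with library peptides lacking any tyrosine serving as negative controls.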

| Binder | enrichment score |
| --- | --- |
| EFNINYNNELP [THG1L_Y228] | inactive: 0.875 |
| EFNINYNNEPP [THG1L_Y228_L232P] | inactive: 0.826 |
| YRVAGYKTQGG [TIA1_Y383_E384K] | inactive: 0.653 |
| FRVAGYETQGG [TIA1_Y383_YF] | inactive: 0.723 |
| FQCKHYACIRQ [TIMP3_Y182_S179C_YF] | active: 4.52 |
| FQSKHYACIRQ [TIMP3_Y182_YF] | inactive: 1.66 |
| VRSNHYAPEED [TJP1_Y1346_D1347A] | inactive: 0.549 |
| AEKPKYQINNI [TJP1_Y1602] | inactive: 0.924 |
| AEKPKYQISNI [TJP1_Y1602_N1605S] | inactive: 0.993 |
| NKEPRYQEDPP [TJP2_Y479] | inactive: 0.617 |
| VDLIVYLWTNP [TK2_Y181_R183W] | inactive: 0.604 |
| NPETCYQRLKK [TK2_Y190] | inactive: 0.561 |
| NPETCYQKLKK [TK2_Y190_R192K] | inactive: 1.05 |
| NPEACYQRLKK [TK2_Y190_T188A] | inactive: 0.51 |
| ATRKAYGQALA [TKT_Y321] | inactive: 0.66 |
| ATCKAYGQALA [TKT_Y321_R318C] | inactive: 0.566 |
| TVEDHYFEGGI [TKT_Y563_YF] | inactive: 0.864 |
| VEDHYYEGGIG [TKT_Y564] | inactive: 0.716 |

What follows are binders tested against SHP2 C-SH2 domain wild-type in the same assay as above. Settings: peptide library: pTyr-Var.

| Binder | enrichment score |
| --- | --- |
| EFNINYNNELP [THG1L_Y228] | inactive: 0.69 |
| EFNINYNNEPP [THG1L_Y228_L232P] | inactive: 0.848 |
| YRVAGYKTQGG [TIA1_Y383_E384K] | inactive: 0.536 |
| FRVAGYETQGG [TIA1_Y383_YF] | inactive: 0.617 |
| FQCKHYACIRQ [TIMP3_Y182_S179C_YF] | active: 4.05 |
| FQSKHYACIRQ [TIMP3_Y182_YF] | inactive: 2.42 |
| VRSNHYAPEED [TJP1_Y1346_D1347A] | inactive: 0.617 |
| AEKPKYQINNI [TJP1_Y1602] | inactive: 0.812 |
| AEKPKYQISNI [TJP1_Y1602_N1605S] | inactive: 0.91 |
| NKEPRYQEDPP [TJP2_Y479] | inactive: 0.33 |
| VDLIVYLWTNP [TK2_Y181_R183W] | inactive: 0.659 |
| NPETCYQRLKK [TK2_Y190] | inactive: 0.771 |
| NPETCYQKLKK [TK2_Y190_R192K] | inactive: 1.41 |
| NPEACYQRLKK [TK2_Y190_T188A] | inactive: 0.531 |
| ATRKAYGQALA [TKT_Y321] | inactive: 0.512 |
| ATCKAYGQALA [TKT_Y321_R318C] | inactive: 0.545 |
| TVEDHYFEGGI [TKT_Y563_YF] | inactive: 0.84 |
| VEDHYYEGGIG [TKT_Y564] | inactive: 0.607 |

Each binder was assayed against SHP2 N-SH2 domain L43F in the same assay as above. Settings: peptide library: pTyr-Var.

| Binder | enrichment score |
| --- | --- |
| EFNINYNNELP [THG1L_Y228] | inactive: 0.699 |
| EFNINYNNEPP [THG1L_Y228_L232P] | inactive: 0.655 |
| YRVAGYKTQGG [TIA1_Y383_E384K] | inactive: 0.478 |
| FRVAGYETQGG [TIA1_Y383_YF] | inactive: 0.847 |
| FQCKHYACIRQ [TIMP3_Y182_S179C_YF] | active: 3.74 |
| FQSKHYACIRQ [TIMP3_Y182_YF] | inactive: 1.39 |
| VRSNHYAPEED [TJP1_Y1346_D1347A] | inactive: 0.647 |
| AEKPKYQINNI [TJP1_Y1602] | inactive: 0.916 |
| AEKPKYQISNI [TJP1_Y1602_N1605S] | inactive: 0.787 |
| NKEPRYQEDPP [TJP2_Y479] | inactive: 0.707 |
| VDLIVYLWTNP [TK2_Y181_R183W] | inactive: 0.487 |
| NPETCYQRLKK [TK2_Y190] | inactive: 0.571 |
| NPETCYQKLKK [TK2_Y190_R192K] | inactive: 1.18 |
| NPEACYQRLKK [TK2_Y190_T188A] | inactive: 0.485 |
| ATRKAYGQALA [TKT_Y321] | inactive: 0.484 |
| ATCKAYGQALA [TKT_Y321_R318C] | inactive: 0.608 |
| TVEDHYFEGGI [TKT_Y563_YF] | inactive: 0.933 |
| VEDHYYEGGIG [TKT_Y564] | inactive: 0.683 |

What follows are binders tested against SHP2 N-SH2 domain T42A in the same assay as above. Settings: peptide library: pTyr-Var.

| Binder | enrichment score |
| --- | --- |
| EFNINYNNELP [THG1L_Y228] | inactive: 0.786 |
| EFNINYNNEPP [THG1L_Y228_L232P] | inactive: 0.709 |
| YRVAGYKTQGG [TIA1_Y383_E384K] | inactive: 0.4 |
| FRVAGYETQGG [TIA1_Y383_YF] | inactive: 0.605 |
| FQCKHYACIRQ [TIMP3_Y182_S179C_YF] | active: 3.37 |
| FQSKHYACIRQ [TIMP3_Y182_YF] | inactive: 1.47 |
| VRSNHYAPEED [TJP1_Y1346_D1347A] | inactive: 0.481 |
| AEKPKYQINNI [TJP1_Y1602] | inactive: 0.895 |
| AEKPKYQISNI [TJP1_Y1602_N1605S] | inactive: 0.799 |
| NKEPRYQEDPP [TJP2_Y479] | inactive: 0.617 |
| VDLIVYLWTNP [TK2_Y181_R183W] | inactive: 0.362 |
| NPETCYQRLKK [TK2_Y190] | inactive: 0.52 |
| NPETCYQKLKK [TK2_Y190_R192K] | inactive: 0.817 |
| NPEACYQRLKK [TK2_Y190_T188A] | inactive: 0.556 |
| ATRKAYGQALA [TKT_Y321] | inactive: 0.526 |
| ATCKAYGQALA [TKT_Y321_R318C] | inactive: 0.546 |
| TVEDHYFEGGI [TKT_Y563_YF] | inactive: 0.758 |
| VEDHYYEGGIG [TKT_Y564] | inactive: 0.59 |

What follows are binders tested against SHP2 N-SH2 domain T52S in the same assay as above. Settings: peptide library: pTyr-Var.

| Binder | enrichment score |
| --- | --- |
| EFNINYNNELP [THG1L_Y228] | inactive: 0.953 |
| EFNINYNNEPP [THG1L_Y228_L232P] | inactive: 0.735 |
| YRVAGYKTQGG [TIA1_Y383_E384K] | inactive: 0.416 |
| FRVAGYETQGG [TIA1_Y383_YF] | inactive: 0.674 |
| FQCKHYACIRQ [TIMP3_Y182_S179C_YF] | active: 3.59 |
| FQSKHYACIRQ [TIMP3_Y182_YF] | inactive: 1.32 |
| VRSNHYAPEED [TJP1_Y1346_D1347A] | inactive: 0.556 |
| AEKPKYQINNI [TJP1_Y1602] | inactive: 0.762 |
| AEKPKYQISNI [TJP1_Y1602_N1605S] | inactive: 0.658 |
| NKEPRYQEDPP [TJP2_Y479] | inactive: 0.574 |
| VDLIVYLWTNP [TK2_Y181_R183W] | inactive: 0.492 |
| NPETCYQRLKK [TK2_Y190] | inactive: 0.664 |
| NPETCYQKLKK [TK2_Y190_R192K] | inactive: 0.899 |
| NPEACYQRLKK [TK2_Y190_T188A] | inactive: 0.482 |
| ATRKAYGQALA [TKT_Y321] | inactive: 0.41 |
| ATCKAYGQALA [TKT_Y321_R318C] | inactive: 0.586 |
| TVEDHYFEGGI [TKT_Y563_YF] | inactive: 0.707 |
| VEDHYYEGGIG [TKT_Y564] | inactive: 0.636 |

Each binder was assayed against SHP2 N-SH2 domain wild-type in the same assay as above. Settings: peptide library: pTyr-Var.

| Binder | enrichment score |
| --- | --- |
| EFNINYNNELP [THG1L_Y228] | inactive: 0.728 |
| EFNINYNNEPP [THG1L_Y228_L232P] | inactive: 0.755 |
| YRVAGYKTQGG [TIA1_Y383_E384K] | inactive: 0.607 |
| FRVAGYETQGG [TIA1_Y383_YF] | inactive: 0.936 |
| FQCKHYACIRQ [TIMP3_Y182_S179C_YF] | active: 3.72 |
| FQSKHYACIRQ [TIMP3_Y182_YF] | inactive: 1.75 |
| VRSNHYAPEED [TJP1_Y1346_D1347A] | inactive: 0.856 |
| AEKPKYQINNI [TJP1_Y1602] | inactive: 0.718 |
| AEKPKYQISNI [TJP1_Y1602_N1605S] | inactive: 0.787 |
| NKEPRYQEDPP [TJP2_Y479] | inactive: 1.14 |
| VDLIVYLWTNP [TK2_Y181_R183W] | inactive: 0.801 |
| NPETCYQRLKK [TK2_Y190] | inactive: 0.714 |
| NPETCYQKLKK [TK2_Y190_R192K] | inactive: 1.49 |
| NPEACYQRLKK [TK2_Y190_T188A] | inactive: 0.551 |
| ATRKAYGQALA [TKT_Y321] | inactive: 0.486 |
| ATCKAYGQALA [TKT_Y321_R318C] | inactive: 0.782 |
| TVEDHYFEGGI [TKT_Y563_YF] | inactive: 0.745 |
| VEDHYYEGGIG [TKT_Y564] | inactive: 0.842 |
